# Measurements: the RNAGym collection of RNA variant scans (doi:10.1073/pnas.2313332121)
# This sample is rich in variants without activity.
# B1: TPR 5TU (parent)
# chain: GGAUCUUCUCGAUCUAACAAAAAAGACAAAUCUGCCACAAAGCUUGAGAGCAUCUUCGGAUGCAGAGGCGGCAGCCUUCGGUGGCGCGAUAGCGCCAACGUUCUCAACUAUGACACGCAAAACGCGUGCUCCGUUGAAUGGAGUUUAUCAUG
# Variants of: B1
# Experiment: polymerase ribozyme fitness, log enrichment relative to wild type (log ratio); higher = more active; in vitro selection for triplet polymerase activity
# Outline: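 Libraries of mutants in each subunit of a heterodimeric triplet polymerase ribozyme were generated by PCR and transcribed. In triplicate, each went through one in vitro selection round: annealing with biotinylated primer, partner subunit and triplets; frozen incubation at −7 °C; gel excision of extended constructs; streptavidin-bead capture; RT-PCR. Fitness, taken from Illumina sequencing of input and output libraries, is the logarithm of a genotype's enrichment over wild-type enrichment, averaged across replicates with inverse-variance weights. The logarithm is base 2, and genotypes needed ≥10 input reads and ≥1 read per output to be kept.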
row,Variant,polymerase ribozyme fitness (log ratio)
1,A30C U31G G59U C95A C129U,≤ -4.2
2,A29U A64U A73G U77A G94U C99U U134C,≤ -4.2
3,A30C C87G U101C,≤ -4.2
4,A30G G50U U55G U82A,≤ -4.2
5,A30U U44A C105U U148A,≤ -4.2
6,A30U G42A U77C U144A,≤ -4.2
7,U31A A39U A52U U56A A115G A119U U144A U148G,≤ -4.2
8,A30G C76U U135G,≤ -4.2
9,A30U A52U C79U U101G,≤ -4.2
10,A29U G83C,≤ -4.2
11,A30C G50A C87A A110U U144C,≤ -4.2
12,A30U G94C A150U,-3.55
13,A30C G50U U78G G86U A115G,≤ -4.2
14,A30U C69G C79A C87G G126A G140C,≤ -4.2
15,A30U U151G,≤ -4.2
16,A30C G92A G100C,≤ -4.2
17,A29U U45A U53A G84U C95A C149A,≤ -4.2
18,A30C A73G C79G G117U A138U,≤ -4.2
19,A30C C32A G74U C76A U139A,≤ -4.2
20,A30U G68A C93U,≤ -4.2
21,A29U U55G G92C A107U,≤ -4.2
22,A30C A47G A49C C87U C95A,≤ -4.2
23,A30G A49U A98U,≤ -4.2
24,A29U A89U,≤ -4.2

row,Variant,polymerase ribozyme fitness (log ratio)
1,A29U C57U U61C A66C C87A C123U,≤ -4.2
2,A29U A47U,≤ -4.2
3,A29U C93A U130G G133A G143U,≤ -4.2
4,U31A C32A A60C C63U C79A A98G G112C G136C U148A,≤ -4.2
5,A30C U45A A91C C96A,≤ -4.2
6,A30U C87A,≤ -4.2
7,A30U C87U,-3.22
8,A30U A41C C69A A106U A110G,≤ -4.2
9,A30C G94U G117U U135G G136A,≤ -4.2
10,U31A C38U U45A U53A C87U C93A U102G,≤ -4.2
11,A30G C35A C85U A121G,≤ -4.2
12,A30U A49G C54U G68C A91C,≤ -4.2
13,U31A A64C G65U C69U G86A,≤ -4.2
14,A30U U31C U53A U55A A89U C103G G126U A150U,≤ -4.2
15,A30G A40C A47G G50U C96U,≤ -4.2
16,A30U A40G G80U G88C A89C G92C U144C,≤ -4.2
17,A30G A110C,≤ -4.2
18,A30U A52G C57U A138G,≤ -4.2
19,A30G G128U C129G,≤ -4.2
20,A30U U55G C76G A91C,≤ -4.2
21,A30U A52G C76U G83A G86U U148A,≤ -4.2
22,A29U G67A C75U C114U,≤ -4.2
23,A30G A40C G42A C54A G67C U139A U148A,≤ -4.2
24,A30U A49G,≤ -4.2

row,Variant,polymerase ribozyme fitness (log ratio)
1,A30C C54A U82C G136C C149A,≤ -4.2
2,A29U U61A C99U U101G A107C U130G U135A,≤ -4.2
3,A29U U55A G62C C116G,≤ -4.2
4,A29U U55A G62C,≤ -4.2
5,A30U C108G G141C C149A,≤ -4.2
6,A30C C35U U44A U61A G62A G141A C149U,≤ -4.2
7,A29U U148G,≤ -4.2
8,A30U C36U U82G G88C C96U A97U U104A A110G G126U G136U,≤ -4.2
9,A29U G140C,≤ -4.2
10,A29U G71C C93U U109G G124C,≤ -4.2
11,U31A C36G C95G,≤ -4.2
12,A30U A40U C87G C103G G141A,-3.9
13,A30G C36A A39G A98U,≤ -4.2
14,A30C U55G C95A U135G U148A,-3.85
15,A29U U56C A120G U148C,≤ -4.2
16,A30C A52U C96G U102G G117A,≤ -4.2
17,A30U A91C C95U A98C U111G G117U,≤ -4.2
18,A30U A40G C96G G140U,≤ -4.2
19,A30U C51G A98U G136U,≤ -4.2
20,U31A C38A A49G A91U,≤ -4.2
21,A30C U56A G80U C93U C95G G100U A110C A115C U135A U139G,≤ -4.2
22,A30G A64C G80U G94A,≤ -4.2
23,A30U G34U C75G G92U A137G,≤ -4.2
24,A29U C57G A107C G128U G141C,≤ -4.2

row,Variant,polymerase ribozyme fitness (log ratio)
1,A30C A60U A66G U82G C85U G94C C105U,≤ -4.2
2,A29U A47U G71A G86A U90A,≤ -4.2
3,A30G G68U G71C A97G,≤ -4.2
4,A30C C51U A52U U78G C85A C114G,≤ -4.2
5,A30G C51A U55A C57A,≤ -4.2
6,A30U C69U C85U A106G C123U A137G,≤ -4.2
7,A30G C51A U78C C85A C93A C114A,≤ -4.2
8,A29U U102G G141U,≤ -4.2
9,A30U C103G A106G G136U,≤ -4.2
10,A29U G141C,-3.49
11,A30G C32U G94C A115C,≤ -4.2
12,A30U A40G G58C C79U G80U C85U G124U C125U,≤ -4.2
13,A30G A66C G84A A150C,≤ -4.2
14,A30C U31G G48C A64C U90G,≤ -4.2
15,A30G C75U C87A C103G A122C C123U,≤ -4.2
16,A30C C51U,≤ -4.2
17,A29U G48U G84A A122G A137C,≤ -4.2
18,A29U A52G G80C A91U U145C,≤ -4.2
19,A30C U111G C129U G136U,≤ -4.2
20,U31A A47G G65U G70C G86A A122U,≤ -4.2
21,A30G C85U C96G A115U,≤ -4.2
22,A30G A41G A47C C72G G86U A98U C125A,≤ -4.2
23,A30C C43G A52C G65U C93U A106G G141U,≤ -4.2
24,A30U C51U U55A U90A C93U G94C G100U U102G U144A,≤ -4.2

row,Variant,polymerase ribozyme fitness (log ratio)
1,A30G G117U U135G,≤ -4.2
2,A30U C79U C123U,≤ -4.2
3,A29U A49C A110G U144C,≤ -4.2
4,A30U A49C C76U C125G G126C A137U U151G,≤ -4.2
5,A30U G68C G92A C114A A138G,≤ -4.2
6,A29U C87U,≤ -4.2
7,A29U A66U C69U A98G,≤ -4.2
8,A29U C72U C96U C129A A137C,≤ -4.2
9,A30C G46U G94U G143A,≤ -4.2
10,A30U U44A U82A A91G,≤ -4.2
11,A30U C35A U55A C96G A120C,≤ -4.2
12,A30U G50U G74U G94C,≤ -4.2
13,A30C G81A G84A G100C A150G,≤ -4.2
14,A30U C69G C93G C96A,≤ -4.2
15,A30U G88C U90G U145A,≤ -4.2
16,A30U G50C C54G G70C A97U C149A,≤ -4.2
17,A29U G140C G143U,≤ -4.2
18,A29U G48A C75G C93U C105G G136A,≤ -4.2
19,A29U U56A C95U A107G C118G G143A,≤ -4.2
20,A30C A52C U56A C87U G92C C99U U130C,≤ -4.2
21,A29U C103U,≤ -4.2
22,A30G A39U A47C U56A G94C C95U C99U A107U G126A,≤ -4.2
23,A30C C63A G83A A150C G152A,≤ -4.2
24,A29U U44A C54A C79G C123A A137G G140A,≤ -4.2

row,Variant,polymerase ribozyme fitness (log ratio)
1,A30G C76A A91G G100A,≤ -4.2
2,A30G G70A U77C G86U G141A U146C C149U,≤ -4.2
3,A30G G48A C87G A147U,≤ -4.2
4,A30U G68A G70A G86U G133U U144A,≤ -4.2
5,A30U C85G C95A A150U,≤ -4.2
6,A29U U55A C87G C132G,≤ -4.2
7,A30C C32A G48C C57U C93A A98C,≤ -4.2
8,A29U C76A C87A C93A C129A,≤ -4.2
9,A30G C32A G50C C79A G84A A98C,≤ -4.2
10,A30U A64U C79U C85U G92C U109A,≤ -4.2
11,A30U A39G A147C,≤ -4.2
12,A29U C87G A147G,≤ -4.2
13,A30G G68A C79G C95U C114G U134A,≤ -4.2
14,A30U G42U A119G A138G,≤ -4.2
15,A30C A40C C87A A121U,≤ -4.2
16,A30C A49C C93G A142C,≤ -4.2
17,A30U G83C G128A U135C,≤ -4.2
18,A30C U33A C75A U82A G83A C95G A138G,≤ -4.2
19,A30U C35U A41U G42A G94C U134C,≤ -4.2
20,U31A C38U G48C U61A C79G C85U U102G C105G U144C,≤ -4.2
21,A30U C32A A52U G88C A113U U134G,≤ -4.2
22,A30C C85A A91U A97U,≤ -4.2
23,A30U G58U G94U,≤ -4.2
24,A30C G50A A52C A66G G80A C85A C125A,≤ -4.2

row,Variant,polymerase ribozyme fitness (log ratio)
1,A30G U82G A122G U146G,-4.18
2,A30G C54G U134G G140C,≤ -4.2
3,A30U U44A G136U,≤ -4.2
4,A30G A49U C85G C103U A110C,≤ -4.2
5,A29U C87U A98U G100C,≤ -4.2
6,A30C A47G G74A U90G A121G G140U,≤ -4.2
7,A30C A52G A106C U146C,≤ -4.2
8,A30C G84A U148C,≤ -4.2
9,A29U U45C G86A U101G G112A C116G G117A,≤ -4.2
10,A30G C79A,≤ -4.2
11,U31A C32U U33C G34U C79A G84A C87U C103A,≤ -4.2
12,A30U A41U G70U G92U C149U,≤ -4.2
13,A29U C87G G100U U101G,≤ -4.2
14,U31A C38U U44G G86U A142C,≤ -4.2
15,A30U A49C C54U G86A G141C U148C,≤ -4.2
16,A30G C36U A39C A47U A49U A60C G74A G80U C99A,≤ -4.2
17,A30C C43G U45A C87A C103A,≤ -4.2
18,A30U U33G G42A C54G C57A U78G C85A C105U,≤ -4.2
19,A30G A49C G88U A110G,≤ -4.2
20,A29U C85U,≤ -4.2
21,A30G A49C G58C G67A C96G A113U A120G,≤ -4.2
22,A30U C38U U55G C63U C75A C76G G88C C108U,≤ -4.2
23,A30C U53G C76G U90C G136A C149A,≤ -4.2
